Experimental data published in publication PMC12102759.

B1: BCAR1 peptide 629-644 (Breast cancer anti-estrogen resistance protein 1), 16-mer library wild type / YES SH3 (YES1 SH3 domain, residues 90-152) (parent)
chain 1: TSSIQSRPLPSPPKFT
chain 2: TGGVTIFVALYDYEARTTEDLSFKKGERFQIINNTEGDWWEARSIATGKNGYIPSNYVAPADS

Variants of: B1
Assay: proteomic peptide phage display deep mutational scan (ProP-PD DMS): M13 P8 16-mer library selected against immobilised GST-tagged bait for four days (rounds), NGS of the eluted pools per day and pseudo-replica
Details: with YES SH3 (YES1 SH3 domain, residues 90-152); bait immobilised on MaxiSorp plates (10 µg), library pre-cleared on GST, 2 h binding at 4 °C, five washes; one round per day, days 1-4; value from days 2 and 3; keep out of graded; scale: average fractional NGS count over selection days 2 and 3

Screen value, by site and new letter:
chain 1 S2: M 4.6e-05 | T 0.000912 | L 3.79e-05 | A 0.000217 | R 4.16e-05 | P 8.12e-05 | Y 3.35e-05 | D 0.000125 | N 5.23e-05 | G 0.00103 | W 0.00126
chain 1 R7: L 5.29e-05 | I 0 | N 9.51e-06 | Q 3.5e-05 | S 2.98e-05 | V 1.73e-05 | D 0.000172 | F 7.67e-05 | G 0.000124 | K 0.000753 | M 0.000816 | E 0.000105
chain 1 S6: M 0.00134 | Q 2.53e-05 | P 0.000122 | K 7.9e-05 | Y 0.000829 | G 0.00078 | L 0.000462 | I 0.000204 | H 7.17e-05 | T 5.92e-05 | V 0.000179 | E 0.000653 | N 0.000192 | A 5.09e-05 | R 0 | W 6.23e-05
chain 1 T1: K 0 | W 8.16e-05 | Y 0.000118 | Q 7.31e-05 | M 7.57e-05 | L 1.54e-05 | G 0 | I 1.25e-05 | R 2.13e-05 | S 7.16e-05 | H 0.000136 | D 2.54e-05
chain 1 S11: W 2.62e-05 | L 2.23e-05 | A 0.000125 | M 7.28e-05 | D 0.000524 | F 0.00018 | T 0.000421 | V 0.000612 | Q 2.53e-05 | R 2.92e-05 | E 0.00407 | P 0.000188 | Y 3.41e-05 | H 0.000319
chain 1 Q5: Y 0.000112 | N 0.00109 | P 0.000469 | V 2.74e-05 | L 0.000125 | G 0.000131 | A 0.000325 | S 0.00014 | K 0 | W 0.000337 | D 0.000181 | I 0.000326 | M 0.000333 | T 0.000144
chain 1 L9: V 5.63e-05 | T 0 | Q 0 | Y 0 | D 0 | I 0.000119 | P 0 | M 0.000161 | F 0
chain 1 P13: D 0.000226 | A 3.78e-05 | N 8.14e-05 | Q 0.000472 | M 0.000165 | T 6.92e-05 | F 0.000189 | S 0.000133 | W 0.000152 | E 2e-05 | L 0.00223 | V 6.19e-05 | Y 0.000958 | I 0.00117
chain 1 S3: T 0.000168 | A 0.000105 | D 0 | V 0.000264 | E 0 | Q 0.000263 | F 0.000263 | W 6.21e-05 | Y 0.000322 | N 6.68e-05
chain 1 K14: S 0.00269 | V 0.00288 | F 0.000323 | R 0.000435 | N 0.0005 | P 0.000397 | E 0.000624 | A 0.000632 | M 0.00386 | Q 0.000236
chain 1 P8: D 4.6e-05 | Y 8.55e-05 | L 3.6e-05 | W 8.63e-05 | A 3.03e-05 | E 2.72e-05 | V 0.000191 | R 4.42e-05 | M 0.00015 | T 5.8e-05
chain 1 F15: Q 4.4e-05 | T 8.17e-06 | R 7.47e-05 | W 0.000147 | S 0 | Y 7.48e-05 | D 0 | E 0.000232 | A 9.69e-05
chain 1 P12: H 0.000281 | S 0.000259 | T 0.00108 | F 0.000389 | L 0.00319 | R 2.03e-05 | W 0.000182 | M 2.97e-05 | Y 0.00149 | K 0.000118
chain 1 P10: F 0 | V 6.49e-05 | K 2.27e-05 | M 0
chain 1 I4: N 8.36e-05 | W 0.00024 | H 0.000121 | V 7.44e-05 | T 0.000484 | S 0.000505 | A 0.000219 | L 6.99e-05 | F 4.23e-05 | G 0.000179 | R 1.67e-05 | D 5.2e-05
